Some of the results follow. Sequences were assembled here from the parent chain. Values near 0.05 are background.
B1: TEV protease; numbered along this chain (parent)
chain: MGESLFKGPRDYNPISSSICHLTNESDGHTTSLYGIGFGPFIITNKHLFRRNNGTLVVQSLHGVFKVKDTTTLQQHLVDGRDMIIIRMPKDFPPFPQKLKFREPQREERICLVTTNFQTKSMSSMVSDTSCTFPSGDGIFWKHWIQTKDGQCGSPLVSTRDGFIVGIHSASNFTNTNNYFTSVPKNFMELLTNQEAQQWVSGWRLNADSVLWGGHKVFMVKPEEPFQPVKEATQL

Variants of: B1
Experiment: raw area under fraction-flipped curve 0-4 h after induction (AUC4h, not background-subtracted), DNA-recorder readout of cleavage of the substrate (dimensionless); higher = more cleavage of the substrate by the protease variant
Details: temperature: 34 °C; time window: 0-4 h after rhamnose induction
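Further: Bxb1 expression induced with 0.2% (w/v) L-rhamnose at OD600 near 0.5, cultures sampled hourly, flipped fraction per protease–substrate barcode pair counted by paired-end Illumina sequencing.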

Variant	area with substrate ENLYFDS	area with substrate ENLYFGS	area with substrate ENLYFHS	area with substrate ENLYFNS	area with substrate ENLYFPS	area with substrate ENLYFRS	area with substrate ENLYFTS	area with substrate ENLYFVS	area with substrate ENLYFWS	area with substrate ENLYFYS	area with substrate ENLYFES	area with substrate ENLYFFS	area with substrate ENLYFIS	area with substrate ENLYFKS	area with substrate ENLYFLS	area with substrate ENLYFMS	area with substrate ENLYFSS
MGESLFKGPRDYNPISSSICHLTNESDGHTTSLYGIGFGPFIITNKHLFRRNNGTLVVQSLHGVFKVKDTTTLQQHLVDGRDMIIIRMPKDFPPFPQKLKFREPQREERICLVTTNFQTKSMSSMVSDTSCTFPSGDGIFWKHWIQTKDGQCGSPLVSTRDGFIVGIHSASNFTNTNNYFTSVPKNFMILLTNQEAQQWVSGWRLNADSVLWGGHKVFMVKPEEPFQPVKEATQL [E189I]	0.0531	0.0617	0.0811	0.0766	0.0619	0.0627	0.0747	0.0969	0.0515	0.0577							
MGESLFKGPRDYNPISSSICHLTNESDGHTTSLYGIGFGPFIITNKHLFRRNNGTLVVQSLHGVFKVKDTTTLQQHLVDGRDMIIIRMPKDFPYFPQKLKFREPQREERICLVTTNFQTKSMSSMVSDTSCTFPSGDGIFWKHWIQTKDGQCGSPLVSTRDGFIVGIHSASNFTNTNNYFTSVPKNFMELLTNQEAQQWVSGWRLNADSVLWGGHKVFMVKPEEPFQPVKEATQL [P94Y]	0.0518				0.0548		0.0539			0.0683	0.0833	0.0775	0.0548	0.0591	0.055	0.0657	0.0447
MGESLFKGPRDYNPISSSICHLTNESDGHTTSLYGIGFGPFIITNKHLFRRNNGTLVVQSLHGVFKVKDTTTLQQHLVDGRDMIIIRMPKDFPPFPQKLKFREPQREERICLVTTNFQTKSMSSMVSDTSCTFPSGDGIFWKHWIQTKDGQCGSPLVSTRDGFIVGIHSASNFTNTNNYFTSVPKNFCELLTNQEAQQWVSGWRLNADSVLWGGHKVFMVKPEEPFQPVKEATQL [M188C]	0.0573			0.0652	0.0691	0.0732	0.073		0.0604		0.0628	0.0569	0.0671			0.0655	0.0675
MGESLFKGPRDYNPISSSICHLTNESDGHTTSLYGIGFGPFIITNKALFRRNNGTLVVQSLHGVFKVKDTTTLQQHLVDGRDMIIIRMPKDFPPFPQKLKFREPQREERICLVTTNFQTKSMSSMVSDTSCTFPSGDGIFWKHWIQTKDGQCGSPLVSTRDGFIVGIHSASNFTNTNNYFTSVPKNFMELLTNQEAQQWVSGWRLNADSVLWGGHKVFMVKPEEPFQPVKEATQL [H47A]	0.0166			0.0652	0.0642		0.0679					0.0747	0.0478			0.0658	
MGESLFKGPRDYNPISSSICHLTNESDGHTTSLYGIGFGPFIITNKHLFRRNNGTLVVQSLHGVFKVKDTTTLQQHLVDGRDMIIIRMPKDFPPFPQKLKFREPQREERICLVTTNFQTKSMSSMVSDTSCTFPSGDGIFWKHWIQTKDGQCGSPLVSTRDGFIVGIHSASNFTNTNNYFTSVPKNFMELLTNQEAQQWVSGRRLNADSVLWGGHKVFMVKPEEPFQPVKEATQL [W203R]	0.0464	0.0659	0.051	0.0448			0.0578	0.0591	0.0678		0.0661	0.0551	0.0532			0.0383	0.0578
MGESLFKGPRDYNPISSSICHLTNESDGHTTSLYGIGFGPFIITNKHLFRRNNGTLVVQSLHGVFKVKDTTPLQQHLVDGRDMIIIRMPKDFPPFPQKLKFREPQREERICLVTTNFQTKSMSSMVSDTSCTFPSGDGIFWKHWIQTKDGQCGSPLVSTRDGFIVGIHSASNFTNTNNYFTSVPKNFMELLTNQEAQQWVSGWRLNADSVLWGGHKVFMVKPEEPFQPVKEATQL [T72P]	0.0544			0.0584		0.0678		0.0065	0.0549	0.0285	0.0371	0.0661	0.057	0.0571	0.0695		
MGESLFKGPRDYNPISSSICHLTNESDGHTTSLYGIGFGPFIITNKHLFRRNNGTLVVQSLHGVFKVKDTTTLQQHLVDGRDMIIIRMPKDFPPFPQKLKFREPQREERICLHTTNFQTKSMSSMVSDTSCTFPSGDGIFWKHWIQTKDGQCGSPLVSTRDGFIVGIHSASNFTNTNNYFTSVPKNFMELLTNQEAQQWVSGWRLNADSVLWGGHKVFMVKPEEPFQPVKEATQL [V113H]	0.0573		0.0496	0.062	0.0516	0.0603	0.0697	0.0112	0.0444	0.0564		0.0677	0.0663	0.0577	0.066	0.0719	0.0743
MGESLFKGPRDYNPISSSICHLTNESDGHTTSLYGIGFGPFIITNKHLFRRNNGTLVVQSLHGVFKVKDTTTLQQHLVDGRDMIIIRMPKDFPPFPQKLKFREPQREERICLVTTNFQTKSMSSMVSDTSCTFPSGDGIFWKHWIQTKDGQCGSPLVSTRDGFIVGIHSASNFTNTNIYFTSVPKNFMELLTNQEAQQWVSGWRLNADSVLWGGHKVFMVKPEEPFQPVKEATQL [N178I]	0.0624					0.0619						0.0664					
MGESLFKGPRDYNPISSSICHLTNESDGHTTSLYGIGFGPFIITNKHLFRRNNGTLVVQSLHGVFKVKDTTTLQQHLVDGRDMIIIRMPKDFPPFPQKLKFREPQREERICLVTTNMQTKSMSSMVSDTSCTFPSGDGIFWKHWIQTKDGQCGSPLVSTRDGFIVGIHSASNFTNTNNYFTSVPKNFMELLTNQEAQQWVSGWRLNADSVLWGGHKVFMVKPEEPFQPVKEATQL [F117M]	0.0561		0.0417			0.0446	0.0324		0.0358	0.0382				0.0614			0.0807
MGESLFKGPLDYNPISSSICHLTNESDGHTTSLYGIGFGPFIITNKHLFRRNNGTLVVQSLHGVFKVKDTTTLQQHLVDGRDMIIIRMPKDFPPFPQKLKFREPQREERICLVTTNFQTKSMSSMVSDTSCTFPSGDGIFWKHWIQTKDGQCGSPLVSTRDGFIVGIHSASNFTNTNNYFTSVPKNFMELLTNQEAQQWVSGWRLNADSVLWGGHKVFMVKPEEPFQPVKEATQL [R10L]		0.0507	0.0582		0.0551		0.0662			0.047	0.0687	0.07					0.0618

— the supplement of paper PMC12217912
